# ChEMBL document CHEMBL5606460, “ASAP - DENV-2 NS2B-NS3 protease fluorescence single point” (2024)
# In all, about 2,000 compounds went through this assay and about 110 (5.5%) showed an effect of 50% or more. This is one part of the list.
# Target: Genome polyprotein (dengue virus type 2) (UniProt P29990)
# [1] = Thailand/16681/1984, Concentration 25.0 uM, Number of replicates 1.0
structure (smiles),measurement,setting,value
CCn1ncc(-c2nn(C)cc2NC(=O)c2ccccc2C(F)(F)F)c1F,inhibition,"Thailand/16681/1984, Concentration 49.5 uM, Number of replicates 2.0, Standard deviation 3.2320563661670154 %",5.06%
same,inhibition,"Thailand/16681/1984, Concentration 99.01 uM, Number of replicates 2.0, Standard deviation 0.128068931171749 %",2.66%
same,inhibition,"Thailand/16681/1984, Concentration 198.0 uM, Number of replicates 2.0, Standard deviation 1.8993686119068767 %",1.53%
CCn1ccnc(N2CC[C@@H](Cc3ccncc3)C2)c1=O,inhibition,"Thailand/16681/1984, Concentration 50.0 uM, Number of replicates 2.0, Standard deviation 1.0302824092471092 %",6.85%
same,inhibition,"Thailand/16681/1984, Concentration 100.0 uM, Number of replicates 2.0, Standard deviation 1.35955887792332 %",14.8%
same,inhibition,"Thailand/16681/1984, Concentration 200.0 uM, Number of replicates 2.0, Standard deviation 1.3214608242677766 %",28.2%
COc1cccc(CNC(=O)C2CCN(c3ccc(C=O)cc3)CC2)c1OC,inhibition,[1],11%
Cc1cc(CO)c2cccc(Cc3ccccc3C(=O)NCC(N)=O)c2n1,inhibition,"Thailand/16681/1984, Concentration 49.95 uM, Number of replicates 2.0, Standard deviation 0.5253345885233084 %",1.79%
same,inhibition,"Thailand/16681/1984, Concentration 99.9 uM, Number of replicates 2.0, Standard deviation 0.6122918820772879 %",9.88%
O=Cc1ccc(N2CCC(C(=O)Nc3ccc(Br)c([N+](=O)[O-])c3)CC2)cc1,inhibition,[1],17.8%
O=Cc1ccc(N2CCC(C(=O)NCCc3ccccc3[N+](=O)[O-])CC2)cc1,inhibition,[1],15.7%
O=Cc1ccc(N2CCC(C(=O)Nc3cc(Cl)c(Br)cn3)CC2)cc1,inhibition,[1],11.8%
Cc1nc([C@H]2CCCNC2)[nH]c1C(=O)Nc1ccccn1,inhibition,"Thailand/16681/1984, Concentration 49.5 uM, Number of replicates 2.0, Standard deviation 0.26437200784337433 %",-5.23%
same,inhibition,"Thailand/16681/1984, Concentration 99.01 uM, Number of replicates 2.0, Standard deviation 0.1513742839369389 %",-5.21%
same,inhibition,"Thailand/16681/1984, Concentration 198.0 uM, Number of replicates 2.0, Standard deviation 0.5479319585272123 %",-5.55%
C[C@@H](CC(C)(C)c1ccccc1)NC(=O)C1CCN(c2ccc(C=O)cc2)CC1,inhibition,[1],14.6%
O=Cc1ccc(N2CCC(C(=O)N(Cc3ccccc3)[C@H]3CCS(=O)(=O)C3)CC2)cc1,inhibition,[1],14%
CSCC[C@H](NC(=O)OC(C)(C)C)C(=O)N1CCC[C@H]1C(=O)Nc1ccc2c(c1)B(O)OC2,inhibition,"Thailand/16681/1984, Concentration 49.5 uM, Number of replicates 2.0, Standard deviation 4.107399373855346 %",-1.99%
same,inhibition,"Thailand/16681/1984, Concentration 99.01 uM, Number of replicates 2.0, Standard deviation 4.409196434477242 %",-1.45%
same,inhibition,"Thailand/16681/1984, Concentration 198.0 uM, Number of replicates 2.0, Standard deviation 4.1412500367053555 %",-1.2%
Cc1cc(Br)c(Cl)cc1NC(=O)C1CCN(c2ccc(C=O)cc2)CC1,inhibition,[1],12.9%
O=Cc1ccc(N2CCC(C(=O)N3CCN(C(=O)N4CCCCC4)CC3)CC2)cc1,inhibition,[1],11.6%
Cc1ccc(C(=O)N2CCC(NC(=O)C3CCN(c4ccc(C=O)cc4)CC3)CC2)cc1,inhibition,[1],13.9%
COC(=O)c1csc2cc(C(=O)N3CCCc4cc(CCN)ccc43)[nH]c12,inhibition,"Thailand/16681/1984, Concentration 49.5 uM, Number of replicates 2.0, Standard deviation 1.4939134214945897 %",2.21%
same,inhibition,"Thailand/16681/1984, Concentration 99.01 uM, Number of replicates 2.0, Standard deviation 1.4587685132205075 %",6.61%
same,inhibition,"Thailand/16681/1984, Concentration 198.0 uM, Number of replicates 2.0, Standard deviation 1.4676854376662603 %",16.2%
CCCCCC(=O)N[C@H](C(=O)N1CCC(N)CC1)c1ccc(OCc2ccccc2)cc1,inhibition,"Thailand/16681/1984, Concentration 49.5 uM, Number of replicates 2.0, Standard deviation 1.3500397593060436 %",-7.81%
same,inhibition,"Thailand/16681/1984, Concentration 99.01 uM, Number of replicates 2.0, Standard deviation 1.8738933918663763 %",-4.12%
same,inhibition,"Thailand/16681/1984, Concentration 198.0 uM, Number of replicates 2.0, Standard deviation 0.2605091648836539 %",-3.96%
O=Cc1ccc(N2CCC(C(=O)NCc3ccc(F)c(Br)c3)CC2)cc1,inhibition,[1],2.23%
Cc1cc(CO)c2cccc(Cc3cccc(NC(=O)c4nc(N)n[nH]4)c3)c2n1,inhibition,"Thailand/16681/1984, Concentration 49.95 uM, Number of replicates 2.0, Standard deviation 2.1470069511188496 %",1.75%
same,inhibition,"Thailand/16681/1984, Concentration 99.9 uM, Number of replicates 2.0, Standard deviation 2.660737289988502 %",8.09%
CNC(=O)c1cc2cc(Cl)ccc2n1S(=O)(=O)c1ccc(Oc2ccccc2Cl)cc1,inhibition,"Thailand/16681/1984, Concentration 49.5 uM, Number of replicates 2.0, Standard deviation 0.49657821525281054 %",6.8%
same,inhibition,"Thailand/16681/1984, Concentration 99.01 uM, Number of replicates 2.0, Standard deviation 0.6960919552093164 %",10.4%
same,inhibition,"Thailand/16681/1984, Concentration 198.0 uM, Number of replicates 2.0, Standard deviation 1.1059036335445078 %",15.1%
Cc1cc(CO)c2cccc(C[C@H](NC(=O)[C@H](N)CCO)C(=O)O)c2n1,inhibition,"Thailand/16681/1984, Concentration 49.95 uM, Number of replicates 2.0, Standard deviation 1.0633997801533022 %",-0.419%
same,inhibition,"Thailand/16681/1984, Concentration 99.9 uM, Number of replicates 2.0, Standard deviation 0.6573622045882916 %",2.93%
O=Cc1ccc(N2CCC(C(=O)N3CCCC[C@H]3C(=O)N3CCCC3)CC2)cc1,inhibition,[1],12.3%
Cc1cc(N)c2c(Cl)ccc(Cl)c2n1,inhibition,"Thailand/16681/1984, Concentration 49.95 uM, Number of replicates 2.0, Standard deviation 8.427681720895945 %",-5.26%
same,inhibition,"Thailand/16681/1984, Concentration 99.9 uM, Number of replicates 2.0, Standard deviation 7.565581927359314 %",-3.92%
CC(C)(CC(=O)N1CCCC1)NC(=O)C1CCN(c2ccc(C=O)cc2)CC1,inhibition,[1],15.4%
NCc1ccc(C[C@H](NC(=O)c2ccccc2)C(=O)Nc2cccc(CN)c2)cc1,inhibition,"Thailand/16681/1984, Concentration 49.5 uM, Number of replicates 2.0, Standard deviation 0.5389148931693977 %",-5.92%
same,inhibition,"Thailand/16681/1984, Concentration 99.01 uM, Number of replicates 2.0, Standard deviation 0.9397447409121293 %",-2.14%
same,inhibition,"Thailand/16681/1984, Concentration 198.0 uM, Number of replicates 2.0, Standard deviation 0.2486807361427685 %",3.08%
O=Cc1ccc(N2CCC(C(=O)Nc3cc(Cl)ccc3OC(F)(F)F)CC2)cc1,inhibition,[1],14.4%
CCCc1nn(C)c(C(N)=O)c1NC(=O)C1CCN(c2ccc(C=O)cc2)CC1,inhibition,[1],8.14%
